# In publication PMC4336329 (PLoS ONE, 2015):
# Hit rate of the full screen: of about 310,000 compounds, about 14,000 (4.5%) showed an effect of 50% or more. The effect is printed as a negative number. The list shows a part of the results.
# Molecular target: human ether-à-go-go-related gene (hERG) potassium channel (human, UniProt Q12809)
# Assay: primary screen, population patch clamp on CHO cells stably expressing hERG
# 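Also: peak tail current of the secondary pulse compared with the same well before compound.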
# Sequence of human ether-à-go-go-related gene (hERG) potassium channel (Q12809 whole entry, looked up): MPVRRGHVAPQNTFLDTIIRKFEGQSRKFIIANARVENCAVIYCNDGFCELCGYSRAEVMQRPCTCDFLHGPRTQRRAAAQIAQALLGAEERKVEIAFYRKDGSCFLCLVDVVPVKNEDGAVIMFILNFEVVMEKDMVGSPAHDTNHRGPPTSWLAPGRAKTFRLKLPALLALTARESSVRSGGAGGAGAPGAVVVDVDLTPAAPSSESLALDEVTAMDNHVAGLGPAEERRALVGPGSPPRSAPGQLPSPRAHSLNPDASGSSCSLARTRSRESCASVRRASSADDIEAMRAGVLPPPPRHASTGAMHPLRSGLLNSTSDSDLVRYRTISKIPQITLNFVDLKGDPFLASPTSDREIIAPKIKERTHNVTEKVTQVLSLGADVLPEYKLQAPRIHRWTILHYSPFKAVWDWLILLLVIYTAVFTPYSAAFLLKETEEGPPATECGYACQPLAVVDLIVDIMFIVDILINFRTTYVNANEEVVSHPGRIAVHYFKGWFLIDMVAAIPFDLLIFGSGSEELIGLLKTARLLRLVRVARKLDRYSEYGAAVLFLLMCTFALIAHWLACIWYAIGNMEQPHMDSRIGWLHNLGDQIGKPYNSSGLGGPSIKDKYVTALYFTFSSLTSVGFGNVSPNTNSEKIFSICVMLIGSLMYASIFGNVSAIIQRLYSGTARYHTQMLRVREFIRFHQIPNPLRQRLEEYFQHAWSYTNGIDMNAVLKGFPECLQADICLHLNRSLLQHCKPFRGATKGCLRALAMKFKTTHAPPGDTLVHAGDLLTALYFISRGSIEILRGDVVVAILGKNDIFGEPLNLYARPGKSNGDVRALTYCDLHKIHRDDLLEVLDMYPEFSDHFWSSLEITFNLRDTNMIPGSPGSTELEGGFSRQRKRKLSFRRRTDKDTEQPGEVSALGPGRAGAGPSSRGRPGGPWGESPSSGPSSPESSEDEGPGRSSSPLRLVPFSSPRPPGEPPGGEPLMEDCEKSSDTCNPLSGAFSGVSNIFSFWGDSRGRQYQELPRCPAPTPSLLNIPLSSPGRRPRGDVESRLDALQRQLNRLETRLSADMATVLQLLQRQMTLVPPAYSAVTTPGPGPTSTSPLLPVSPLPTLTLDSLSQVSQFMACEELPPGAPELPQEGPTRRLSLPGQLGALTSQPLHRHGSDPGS
row,Structure (SMILES),"hERG current change (%, negative = inhibition) at 10uM [%]"
1,COCCN(Cc1cc2cc3c(cc2nc1Cl)OCO3)C(C)=O,3.81
2,Cc1cc(C)nc(NC2=NCCS2)n1,22.8
3,O=C(CSc1ccccc1)N1CCc2ccccc21,-1.34
4,CC1CC(N(C(=O)c2ccc(Cl)cc2)c2ccccc2)c2ccccc2N1C(=O)c1ccco1 (centres unmarked),-1.8
5,COc1ccc(CC(=O)NNS(=O)(=O)c2ccc3ccccc3c2)cc1OC,11
6,CCN(C(=O)CSc1nc2ccc(OC)cc2[nH]1)c1c(N)n(Cc2ccccc2)c(=O)[nH]c1=O,12.8
7,O=C(CCC1CC(=O)Nc2ccccc21)NCc1ccc(F)cc1 (centres unmarked),-17.6
8,Cc1oc(C(C)(C)C)cc1C(=O)NC(Cc1ccccc1)C(=O)O (centres unmarked),5.73
9,CCOC(=O)N1CCN(C2CCCN(C(=O)c3cccc(Cl)c3)C2)CC1 (centres unmarked),-0.193
10,CC12CC3(C)CC(C)(C1)CC(C(N)=O)(C2)C3,22.7
11,CC(=O)Nc1ccc(N(C(=O)Cc2cccs2)C(C(=O)NC2CCCC2)c2ccncc2)cc1 (centres unmarked),9.17
12,O=C(NCc1n[nH]c(=S)n1-c1cccc(Cl)c1)c1ccc(S(=O)(=O)N2CCCCC2)cc1,12.7
13,O=C(NC1CCCC1)C(c1ccncc1)N(C(=O)c1csnn1)c1cccc(Cl)c1 (centres unmarked),-7.32
14,CCC1CCCCN1S(=O)(=O)c1c(C)n(C)c(=O)n(C)c1=O (centres unmarked),2.51
15,Nc1ncnc2c1ncn2CCc1ccccc1,11.9
16,O=C(NNC(=O)c1cncc(Br)c1)c1ccncc1,8.16
17,C=CCn1c(SCC(=O)NCC2CCCO2)nc2scc(-c3ccccc3)c2c1=O (centres unmarked),-15.1
18,NS(=O)(=O)c1ccc(CCNC(=O)COC(=O)COc2cccc(C(F)(F)F)c2)cc1,-11.8
19,Cc1c(C(=O)N2CC(C)OC(C)C2)sc2nc(-c3ccccc3)cn12 (centres unmarked),-15.2

row,Structure (SMILES),"hERG current change (%, negative = inhibition) at 10uM [%]"
1,Cc1ccc(SCc2cc(=O)[nH]c(/N=C(\N)Nc3ccc(C)c(C)c3)n2)cc1,-5.05
2,COc1ccccc1C(=O)N1CCCC1(C#N)c1ccccc1 (centres unmarked),-3.96
3,COC(=O)C1=C(C)NC(=O)NC1c1ccc(N2CCC(c3ccccc3)=N2)cc1 (centres unmarked),39.7
4,Cc1cccc(C)c1NC(=O)COc1ccc2c(C)c(Cc3ccccc3)c(=O)oc2c1,-8.46
5,CC(NC(=O)c1ccccc1NC(=O)CN1CCN(c2ccccc2O)CC1)c1ccccc1 (centres unmarked),-6.31
6,NS(=O)(=O)c1ccc(NC(=O)Cc2cccs2)cc1,15
7,CC(C)(C)C(=O)Nc1c2c(nn1-c1ccccc1)CSC2,1.98
8,Fc1ccc(NCc2n[nH]c(=S)n2Cc2ccccc2)cc1,-19.7
9,CC(=O)Nc1ccc(NC(=O)CSc2nnc(NC(=O)c3ccc(Br)o3)s2)cc1,-0.661
10,O=C(Nc1ccccc1)Nc1c(F)cccc1F,13.2
11,O=C(Cc1ccsc1)NNC(=O)c1ccccc1O,7.87
12,Cc1c(NC(=O)Cn2nc(C(=O)O)c3ccccc3c2=O)c(=O)n(-c2ccccc2)n1C,-16.8
13,O=C(CN1CCN(c2ccc(F)cc2)CC1)c1ccc(O)cc1O,4.2
14,CCOc1ccccc1NC(=O)C1CC2CCCC(C1)C2=O (centres unmarked),10.9
15,Cc1ccc(S(=O)(=O)N(C)c2ccc(OCC(=O)Nc3ccc(C(=O)N(C)C)cc3)cc2)cc1C,19.4
16,CN(C)CCCN(Cc1ccccc1)C(=S)NCc1ccccc1,-24.7
17,Cc1ccc(-c2nn(C(C)(C)C)c3ncnc(N)c23)cc1,9.28
18,COc1ccc2c(c1)CC(C1(O)C(=O)Nc3ccccc31)C2=O (centres unmarked),-8.95
19,CCn1c(=O)c(C(=O)NC(C)C)c(O)c2ccccc21,9.18

row,Structure (SMILES),"hERG current change (%, negative = inhibition) at 10uM [%]"
1,Cc1[nH]c(-c2ccccn2)nc(=S)c1Cl,17.1
2,CC(C)CC(NC(=O)OC(C)(C)C)c1cn([C@@H](CCC(=O)OC(C)(C)C)C(=O)N2CCN(C(=O)OC(C)(C)C)CC2)nn1 (some centres unmarked),-0.913
3,CCn1c(=O)n(CC)c2cc([N+](=O)[O-])ccc21,16
4,Cc1cc(C)c2nc(C)cc(Nc3ccc(C(=O)N(C)C)cc3)c2c1,-28.1
5,O=C(COC(=O)C1CC1)Nc1c(Cl)cccc1C(F)(F)F,19.1
6,C=CCNC(=S)/C(=C(/[O-])c1ccccc1Br)[n+]1ccccc1,16.6
7,O=C(CCC(=O)Nc1ccccc1Cl)NNC(=O)Nc1cccc([N+](=O)[O-])c1,-0.741
8,Cc1[nH]n(-c2ccccc2)c(=O)c1N=Nc1ccc(C(=O)O)cc1,25.7
9,CN(c1ccccc1)S(=O)(=O)c1cccc(C(=O)Nc2nccs2)c1,9.62
10,COc1ccc(C(=O)Nc2ccc(Cl)cc2C(=O)NCCN2CCOCC2)cc1,-12.3
11,O=c1oc2cc(O)c(Cl)cc2c2ccccc12,3.98
12,COc1ccc(N=C2SCC(=O)N2CCc2ccc(OC)c(OC)c2)cc1,10.6
13,CCN(CC)C(=O)Cn1cc(S(=O)(=O)CC(=O)NCCc2ccccc2)c2ccccc21,-3.13
14,Cc1nn(C)cc1S(=O)(=O)Nc1ccc(F)c(F)c1,14.9
15,CC(=O)Nc1ccc(NC(=O)CN(C)CCC#N)cc1,5.44
16,O=C(COC(=O)Cc1ccccc1)Nc1cc(S(=O)(=O)N2CCOCC2)ccc1N1CCCC1,-34.6
17,CC1CCc2onc(C(=O)NCc3ccco3)c2C1 (centres unmarked),-9.46
18,Cc1noc(C)c1COc1cccc(C(=O)Nc2cccnc2)c1,10.8
